According to publication PMC4336329 (PLoS ONE, 2015):
Out of some 310,000 compounds screened, about 14,000 (4.5%) showed an effect of 50% or more. The effect is printed as a negative number. The list shows a part of the results.

target: human ether-à-go-go-related gene (hERG) potassium channel (human, UniProt Q12809); test: primary screen, population patch clamp on CHO cells stably expressing hERG
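Also: peak tail current of the secondary pulse compared with the same well before compound.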

Chain of human ether-à-go-go-related gene (hERG) potassium channel (Q12809 whole entry, looked up): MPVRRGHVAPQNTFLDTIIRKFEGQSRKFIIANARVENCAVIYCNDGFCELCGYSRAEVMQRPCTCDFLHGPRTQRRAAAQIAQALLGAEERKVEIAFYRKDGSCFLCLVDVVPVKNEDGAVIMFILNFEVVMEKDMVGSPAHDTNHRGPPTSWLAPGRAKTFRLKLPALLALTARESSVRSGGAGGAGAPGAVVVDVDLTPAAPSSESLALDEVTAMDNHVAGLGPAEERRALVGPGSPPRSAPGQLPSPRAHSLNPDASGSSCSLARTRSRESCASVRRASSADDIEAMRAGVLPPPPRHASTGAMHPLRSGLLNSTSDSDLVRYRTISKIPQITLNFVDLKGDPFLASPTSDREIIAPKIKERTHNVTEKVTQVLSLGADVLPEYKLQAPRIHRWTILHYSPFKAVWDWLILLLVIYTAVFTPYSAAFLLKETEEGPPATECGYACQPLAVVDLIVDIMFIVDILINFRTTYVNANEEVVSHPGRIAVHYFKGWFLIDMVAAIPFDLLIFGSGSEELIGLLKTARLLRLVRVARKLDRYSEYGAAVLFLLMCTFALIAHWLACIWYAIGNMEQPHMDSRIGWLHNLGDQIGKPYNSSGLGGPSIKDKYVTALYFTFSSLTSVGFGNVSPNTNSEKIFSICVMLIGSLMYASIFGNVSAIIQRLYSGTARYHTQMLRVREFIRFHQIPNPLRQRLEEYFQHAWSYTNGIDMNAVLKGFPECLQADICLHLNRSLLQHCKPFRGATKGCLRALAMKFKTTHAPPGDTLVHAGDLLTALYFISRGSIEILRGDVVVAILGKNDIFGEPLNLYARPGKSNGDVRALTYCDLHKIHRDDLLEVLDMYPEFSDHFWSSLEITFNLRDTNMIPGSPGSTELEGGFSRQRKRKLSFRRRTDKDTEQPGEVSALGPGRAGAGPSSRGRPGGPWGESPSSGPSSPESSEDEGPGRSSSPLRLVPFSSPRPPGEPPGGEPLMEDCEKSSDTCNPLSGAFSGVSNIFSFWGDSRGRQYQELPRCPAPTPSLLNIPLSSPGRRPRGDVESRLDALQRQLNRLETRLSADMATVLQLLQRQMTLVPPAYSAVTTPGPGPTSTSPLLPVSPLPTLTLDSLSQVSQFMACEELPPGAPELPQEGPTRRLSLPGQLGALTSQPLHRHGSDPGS

| SMILES | hERG current change (%, negative = inhibition) at 10uM |
| --- | --- |
| COc1cc(C(=O)NCCCNc2ccc([N+](=O)[O-])cc2)cc(OC)c1OC | -57.6% |
| COc1ccc(C(=O)NNC(=O)C2CCCN(C3CC(=O)N(c4ccccc4)C3=O)C2)cc1 (stereo not shown) | 7.27% |
| O=C(OC1CCOC1=O)c1ccc2ncsc2c1 (stereo not shown) | 14.9% |
| O=C(COc1ccc(F)c(Cl)c1)N1CCCCCCC1 | 14.1% |
| C=CCNC(=O)/C(=C\c1ccc([N+](=O)[O-])cc1)NC(C)=O | 2.33% |
| CCN(CC(=O)NCc1cccs1)C(=O)CCC(=O)c1ccc(C)cc1 | -46.9% |
| Cc1ccc(NC(=O)CSCC(=O)NC2=NCCS2)cc1 | 8.6% |
| COc1ccccc1C1(CCNS(=O)(=O)c2ccc(C)cc2)CCOC(C(C)C)C1 (stereo not shown) | 4.49% |
| Cn1c(=O)c2c(nc(NCC3CCCO3)n2Cc2ccccc2)n(C)c1=O (stereo not shown) | -11.6% |
| Cc1cccc(NC(=O)COn2nnc3ccc(S(C)(=O)=O)cc32)c1 | 19.4% |
| Cc1onc(-c2c(Cl)cccc2Cl)c1C(=O)NCC1CCCO1 (stereo not shown) | 8.5% |
| O=C(CCN1C(=O)/C(=C/c2ccc(Cl)cc2)SC1=S)Nc1ccc(C(=O)O)cc1 | 3.38% |
| COCCCNC(=O)/C(C#N)=C/c1c(N2CCCCCC2)nc2ccccn2c1=O | 2.27% |
| CCOC(=O)c1c(C)[nH]c(NC(=O)NNC(=O)c2ccccc2Cl)c1C | 15.1% |
| Cc1cc(C)nc(SC2CC(=O)N(c3ccc(Cl)cc3)C2=O)n1 (stereo not shown) | -8.77% |
| COc1ccc(N2CCN(C(=O)C(=O)c3cn(CC(=O)N4CCOCC4)c4ccccc34)CC2)cc1 | 2.05% |
| NS(=O)(=O)c1ccc(S(=O)(=O)c2ccccc2)nc1 | 5.27% |
| O=Cc1cn(CC(O)CN2CCCCC2)c2ccccc12 (stereo not shown) | 27.3% |
| COc1ccc(S(N)(=O)=O)cc1C(=O)NCCCN1CCN(c2cccc(Cl)c2)CC1.CS(=O)(=O)O | -23.9% |
| COc1ccc(/C=N/NC(=O)c2ccco2)cc1Cn1nc(C)c([N+](=O)[O-])c1C | -14.7% |
| Cc1cc(C(=O)COC(=O)CNC(=O)c2ccco2)c(C)n1Cc1ccco1 | -3.61% |
| O=S1(=O)CCN(OCc2ccc(Cl)cc2)CC1 | 34.5% |

| SMILES | hERG current change (%, negative = inhibition) at 10uM |
| --- | --- |
| O=C(CSc1nc2c(cnn2-c2ccccc2)c(=O)[nH]1)N1N=C(c2cccs2)CC1c1ccc(F)cc1 (stereo not shown) | 16% |
| COc1cc(C2C(C(=O)c3ccco3)=C(O)C(=O)N2CCc2ccccc2)ccc1O (stereo not shown) | 8.89% |
| Brc1ccc2[nH]c3c(N4CCc5ccccc5C4)ncnc3c2c1 | 11.6% |
| CN1C2CCC1/C(=C\c1ccccc1)C(=O)/C2=C\c1ccccc1 | -1.73% |
| CC1CCCC(C)N1C(=O)COC(=O)Cc1ccc(F)cc1 (stereo not shown) | 14% |
| CN(CCC1CCCCO1)Cc1cn(C)nc1-c1ccc2c(c1)OCCO2 (stereo not shown) | -6.42% |
| Cc1cccc(OCC(=O)Nc2ccc3nc(C)sc3c2)c1 | 20.6% |
| CCn1c(NC(=S)Nc2ccccc2)nc2ccccc21 | 18.4% |
| CC(C)(C)NC(=O)C(c1ccco1)N(Cc1ccc2c(c1)OCO2)C(=O)c1snc(C(N)=O)c1N (stereo not shown) | -7.21% |
| CCOc1ccc(C(c2c(C)[nH][nH]c2=O)c2c(C)[nH][nH]c2=O)cc1OCC | 5.77% |
| CC(Oc1ccccc1)C(=O)NNC(=O)c1ccccn1 (stereo not shown) | -6.14% |
| COc1ccc(C(=O)c2ccccc2)cc1 | 1.12% |
| CCOc1ccc(NC(=S)N2CCC(c3nc4ccccc4[nH]3)CC2)cc1 | -0.503% |
| Cc1cc(C)c(N=Cc2c(O)n(-c3nccs3)c(=O)c3ccccc23)c(C)c1 | -23% |
| O=C(CC1C(=O)NCCN1Cc1cccc(F)c1F)NCCCC1CCCC1 (stereo not shown) | -17.1% |
| Cc1cc(C)c(C)c(OCCOCCNCc2ccccc2)c1.O=C(O)C(=O)O | -54.2% |
| CCCc1ccc(S(=O)(=O)NCC2CCCN2CC)cc1 (stereo not shown) | -39.1% |
| O=C(Nc1ccc2c(c1)OCO2)c1ccc[n+]([O-])c1 | 29% |
| Cc1ccc(S(=O)(=O)N2[C@@H](c3ccc(F)cc3)C(C(=O)O)=CC[C@H]2c2ccc3c(c2)OCO3)cc1 | 9.34% |
| CN(C)C(=S)NC(=O)C12CC3CC(C)(CC(C)(C3)C1)C2 | 10% |
| O=C(O)c1c(NC(=O)N(CCO)Cc2ccccc2)sc2c1CCCC2 | 20.7% |
| CC(=O)c1ccc(N2CCN(C(=O)CCc3ccccc3)CC2)cc1 | -54.1% |

| SMILES | hERG current change (%, negative = inhibition) at 10uM |
| --- | --- |
| CCOC(=O)C1CCCN(S(=O)(=O)c2ccc(Br)s2)C1 (stereo not shown) | -13.1% |
| OCc1nc2ccccc2n1Cc1c(F)cccc1Cl | -5.9% |
| COC(=O)c1ccc(COc2cc(O)c3c(c2)OC(C)(C)CC3=O)cc1 | 6.38% |
| COc1cccc2cc(C(=O)N3CCN(c4ccccn4)CC3)c(=O)oc12 | 2.71% |
| Cn1nc(NC(=O)C(C)(C)C)c2c(F)cccc21 | -0.47% |
| Cc1ccc(NC(=O)c2ccccc2NC(=O)CCC(=O)O)cc1 | -6.01% |
| Cc1ccc(NC(=O)c2cccc3ccccc23)cc1 | 13.3% |
| CCS(=O)(=O)N1CCC(C(=O)N2CCC3(CC2)OCCO3)CC1 | 6.65% |
| Cc1cc(C)n(-c2nc(NCC(C)O)c3c4c(sc3n2)COC(C)(C)C4)n1 (stereo not shown) | 6.03% |
| O=c1c2ccccc2nnn1CSc1ccc2c(c1)OCCO2 | -7.04% |
| CC(=O)Oc1c(I)cc(I)cc1C(=O)Nc1ccc(Cl)cc1 | 19.9% |
| Cc1ccc(NC(=O)c2ccc(F)cc2F)cc1 | 12.2% |
| O=C(COC(=O)c1cccnc1Cl)NCCC1=CCCCC1 | 25.9% |
| CC(=C/C(=O)O)/C=C/c1cccs1 | 12.1% |
| O=C(O)c1ccccc1-c1ccc(/C=c2\sc3nc4cc(Br)cnc4n3c2=O)o1 | 7.47% |
| CCOc1ccccc1OCCOCCOc1ccccc1[N+](=O)[O-] | -20.5% |
| O=Cc1ccc(-n2cncn2)cc1 | 29.1% |
| O=C(COc1ccc(C(=O)c2ccccc2)cc1)NCC(=O)Nc1ccccc1Br | -22.2% |
| c1ccc(CC(NCc2ccco2)c2ccccc2)cc1 (stereo not shown) | -9.13% |
| COc1ccc(-c2noc(C(=O)NCc3ccccc3Cl)n2)cc1OC | 0.607% |
| O=C(CSc1nc2ncccc2[nH]1)Nc1c(F)cc(F)cc1Br | 10.2% |
| O=C(Nc1nccs1)C1(S(=O)(=O)c2ccc(Cl)cc2)CC1 | 0.342% |

| SMILES | hERG current change (%, negative = inhibition) at 10uM |
| --- | --- |
| COc1ccc(/C=C/C(=O)CC(O)(c2ccccc2)C(F)(F)F)cc1 (stereo not shown) | 0.0544% |
| Cn1cccc1Cc1nnc(SCC(=O)Nc2ccccc2)n1-c1ccc(F)cc1 | -39.7% |
| CCOc1ccc(-c2cc(C(=O)O)c3ccccc3n2)c(OCC)c1 | 11.3% |
| N/C(=N\OC(=O)COc1ccc([N+](=O)[O-])cc1)c1cccnc1 | 1.41% |
| CCOC(=O)c1c(-c2ccc(OC)cc2)csc1NC(=O)CSc1ncnc2sccc12 | 2.51% |
| Cc1cc(C)c(C(=O)COC(=O)Cn2c(C)csc2=O)cc1C | 8.61% |
| Fc1ccccc1CCNc1c2c(nc3ncnn13)CCCC2 | -17.4% |
| C=CCNC(=S)Nc1sc2c(c1C(N)=O)CCCC2 | 1.2% |
| CCOC(=O)C1=C(C)N(c2ccc(OC)cc2)C(=O)/C1=C\c1cccs1 | -5.96% |
| O=C(/C(=C/c1ccc(Cl)cc1)c1nc2ccccc2[nH]1)c1ccccc1 | 7.41% |
| CCOC(=O)Cn1nnnc1CN(CCc1ccccc1)Cc1cc2cc(CC)ccc2[nH]c1=O | -4.43% |
| COc1ccc(S(=O)(=O)N2CCCCC2)cc1NC(=O)[C@@H]1CCCN1C(=O)c1cccs1 | -18.9% |
| CCOC(=O)N1CCN(S(=O)(=O)c2ccc(F)c(C(=O)Nc3ccc(C)c(Cl)c3)c2)CC1 | -13.5% |
| C#CCOc1coc(COC(=O)c2ccccc2)cc1=O | -9.45% |
| CN(C)C(=O)CSc1ncnc2scc(-c3ccccc3)c12 | -9.31% |
| CCOC(=O)c1ccc(N2C(=O)CC(Sc3nc(C)cc(C)n3)C2=O)cc1 (stereo not shown) | 13.9% |
| CNC(=S)N/N=C/c1cn(Cc2ccc(F)cc2)c2ccccc12 | -4.59% |
| Cc1cc(=O)c(C(=O)O)nn1-c1ccccc1C(F)(F)F | 4.67% |
| N#Cc1ccccc1OCC(=O)Nc1cccc(S(=O)(=O)N2CCCCCC2)c1 | -25.2% |
| Cc1cc(C)nc(/N=C(\N)Nc2ccc(OCCC(C)C)cc2)n1 | -71.8% |
| Cc1c(C(=O)Nc2nnc(C(F)(F)F)s2)oc2ccccc12 | 13.1% |
| COCC(=O)N(CCc1ccc(OC)c(OC)c1)Cc1cc2cc(C)ccc2nc1Cl | -15.9% |
